Reference: publication PMC6919601, “Identification of Plasmodium dipeptidyl aminopeptidase allosteric inhibitors by high throughput screening” (PLoS ONE, 2019)
“And” between values parts separate entries of the source, which are not always exact repeats. Identical values can stand only once. Out of some 110,000 compounds screened, about 230 (0.21%) showed an effect of 50% or more. This is one part of the list.

molecular target: DPAP1 (Plasmodium falciparum, UniProt Q8IIJ9); experiment: primary screen, percent inhibition; read by cleavage of a fluorogenic dipeptide substrate; higher = more effect of the substance; design: species or system P. falciparum D10 trophozoite lysates; single well
Sequence (Q8IIJ9 whole entry, looked up): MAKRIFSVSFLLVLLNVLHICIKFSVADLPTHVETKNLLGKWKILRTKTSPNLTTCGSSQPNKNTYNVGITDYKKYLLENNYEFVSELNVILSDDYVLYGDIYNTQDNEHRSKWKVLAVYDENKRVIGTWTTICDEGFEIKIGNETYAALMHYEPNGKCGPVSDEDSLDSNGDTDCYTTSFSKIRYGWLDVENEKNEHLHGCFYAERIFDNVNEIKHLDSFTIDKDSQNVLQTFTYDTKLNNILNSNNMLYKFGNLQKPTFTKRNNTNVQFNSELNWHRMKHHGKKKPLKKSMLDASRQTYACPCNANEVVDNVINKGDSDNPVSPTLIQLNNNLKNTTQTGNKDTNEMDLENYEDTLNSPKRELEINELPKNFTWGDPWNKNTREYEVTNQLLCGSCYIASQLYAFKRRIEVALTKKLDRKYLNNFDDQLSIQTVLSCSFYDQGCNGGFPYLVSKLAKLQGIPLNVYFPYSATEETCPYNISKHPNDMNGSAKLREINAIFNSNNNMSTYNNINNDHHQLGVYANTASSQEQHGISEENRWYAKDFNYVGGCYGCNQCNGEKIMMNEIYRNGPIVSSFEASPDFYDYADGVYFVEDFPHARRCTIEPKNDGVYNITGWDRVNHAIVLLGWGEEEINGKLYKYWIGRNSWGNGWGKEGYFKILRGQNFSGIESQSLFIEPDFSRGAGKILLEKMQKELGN
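Note: 30 min substrate incubation versus DMSO and 10 µM JCP410 controls.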

| SMILES | % Inhibition @ 10 uM |
| --- | --- |
| O=C(COc1ccccc1)N1CCN(C(c2ccccc2)c2ccccc2)CC1 | -9.4% |
| CC(C)c1ccc(OCC(=O)N(Cc2nc(-c3ccc(Cl)cc3)no2)C(C)C)cc1 | 3.88% |
| Cc1ccccc1OCc1nnc(SCc2ccc(C#N)cc2Cl)n1C | 4.42% |
| COc1ccc(CCNC(=O)CN2CCN(Cc3ccc4c(c3)OCO4)CC2)cc1OC | 3.68% |
| O=C1NC(=O)/C(=C\c2cccc(O)c2)S1 | 2.03% and 1.29% |
| Sc1nncn1-c1ccccn1 | -5.26% |
| CN1C(=O)S/C(=C\c2cc(Cl)c(O)c(Br)c2)C1=O | 0.484% |
| Cc1nc2c(c(C)c1CCC(=O)N1CCN(Cc3ccccc3)CC1)c(=O)n(C)c(=O)n2C | 5.32% |
| O=C(c1ccc2ccccc2c1)N1CCc2[nH]c3ccccc3c2C1 | 7.06% |
| COc1ccc(N(CC(=O)Nc2ccccc2C)S(=O)(=O)c2ccc(NC(C)=O)cc2)cc1 | 1.87% |
| Cc1ccc(C(C)NC(=O)Nc2cccc(C)c2)cc1 (centres unmarked) | 5.44% |
| N#CC1=C(N)N(c2ccc(Cl)cc2)C2=C(C(=O)CCC2)C1c1cccs1 (centres unmarked) | 0.76% |
| c1coc(CNc2nc[n+]3c4c2ncn4CC3)c1 | -5.2% |
| Oc1nc(SCc2ccc(F)cc2)nc2c1nnn2Cc1ccccc1 | -3.75% |
| CCOC(=O)c1cc(-c2ccccc2C)no1 | 6.51% |
| O=C(NCc1ccc(Cl)cc1)c1cccc2c1C(=O)N(CC1CCCO1)C2 (centres unmarked) | -2.83% |
| CCCCSC1=C(C#N)C(=O)NC(c2ccco2)S1 (centres unmarked) | 6.46% |
| CCOC(=O)c1c(NC(=O)CN2CCCCC2)sc2c1CCCC2 | 1.29% |
| CCOc1ccc(NC2=CC(=O)c3ccccc3C2=O)cc1 | 3.34% |
| CC1CN(C(=O)C2CC2)C(C)CN1C(=O)C1CC1 (centres unmarked) | -3.13% |
| CC1CCCC(C)N1CC(O)COc1ccc([N+](=O)[O-])cc1 (centres unmarked) | -3.16% |
| CC(C)c1ccc(OCC(=O)Nc2ccc(CN3CCOCC3)cc2)cc1 | 4.03% |
| COc1ccccc1C(=O)N/C(=C\c1ccc2c(c1)OCO2)C(=O)NCc1ccccc1 | 7.1% |
| C=CCOc1ccc(C2C3CN(C)CC=C3C(C#N)=C(N)C2(C#N)C#N)cc1 (centres unmarked) | -1.11% |
| CCN1CCC(NCCc2ccccc2)CC1 | 1.88% |
| Cc1nc2c(-c3ccc(F)cc3)c(C)nn2c(C)c1CC(=O)N1CCC(C)CC1 | 2.57% |

| SMILES | % Inhibition @ 10 uM |
| --- | --- |
| CCC[C@@H](/C=C/S(=O)(=O)c1ccccc1)NC(=O)[C@H](Cc1ccc(F)cc1)NC(=O)N1CCC(N2CCOCC2)CC1 | 6.03% |
| COc1ccc(C2C(C#N)=C(N)Oc3[nH]nc(C)c32)cc1CSc1ccccn1 (centres unmarked) | -2.8% |
| Cc1nn(-c2cccc(F)c2)c2c1c(C(F)(F)F)cc(=O)n2CC(=O)N1CCCC1 | -4.17% |
| Cc1c(Cl)cccc1NS(=O)(=O)Cc1ccccc1 | 0.219% |
| CC(C)N(CCCNC(=O)C1CCC(CNS(=O)(=O)c2ccccc2)CC1)Cc1ccccc1 (centres unmarked) | -6.4% |
| CC(=O)Nc1ccc(S(=O)(=O)N2CCCC2)cc1 | 3.54% |
| NC(=O)C1CCN(C(=O)CCc2nnc3n(CCc4ccccc4)c(=O)c4ccccc4n23)CC1 | 4.16% |
| CCCNC(=O)C1Sc2nnc(-c3ccccc3)n2NC1c1ccc(OC)cc1 (centres unmarked) | -3.53% |
| CC1CN(C)C(C)CC1NCc1ccccc1 (centres unmarked) | -3.44% |
| CN1N=C(c2ccccc2)CC1=O | 17% |
| CC(NC(=O)CSc1nnc(COc2ccccc2Cl)o1)c1ccccc1 (centres unmarked) | 4.18% |
| CS(=O)(=O)c1nc(S(=O)(=O)c2ccc(Cl)cc2)c(NCc2ccccc2Cl)s1 | 1.15% |
| CCOc1ccc(NC(=O)C(=O)NC2CCCCC2)cc1 | -0.414% |
| CCOC(=O)c1oc2ccccc2c1C | 3.77% |
| CCCOc1ccc(C2C(C(=O)OCC)=CN(C)C=C2C(=O)OCC)cc1 | 3.45% |
| CC(C=O)NC(=O)C(Cc1ccccc1)NC(=O)Nc1ccccc1 (centres unmarked) | -0.778% |
| C=CCc1cccc2cc(C(=O)Nc3ccccc3Cl)c(=O)oc12 | -6.18% |
| Cc1cccc(NC(=O)Cn2cc(S(=O)(=O)N3CCCC3)c(S(=O)(=O)N3CCCC3)c2)n1 | -3.94% |
| COP(=O)(OC)C(Nc1ccc(Br)cc1)c1ccc(Cl)cc1 (centres unmarked) | -0.744% |
| O=c1c2c(n3nnnc3n1-c1ccccc1)-c1ccccc1CC21CCCC1 | -0.902% |
| CN(C)S(=O)(=O)c1ccc(C(=O)NCC(C)(C)CNC2=NS(=O)(=O)c3ccccc32)cc1 | -0.0735% |
| CCOc1cc(C2c3c(-c4ccccc4O)n[nH]c3C(=O)N2CC2CCCO2)ccc1O (centres unmarked) | -1.35% |
| O=c1c2cnn(-c3ccc(F)cc3)c2ncn1Cc1ccc(C(F)(F)F)cc1 | -0.0309% |
| O=C(c1ccc(COc2ccccc2Cl)o1)N1CCN(Cc2ccc3c(c2)OCO3)CC1 | -1.33% |
| COc1cc(C2CC(=O)NC3=C2C(=O)CC(C)(C)C3)c(OC)cc1Br (centres unmarked) | 2.54% |
| CC(C)c1ccc(C2=CC(c3ccccc3Cl)n3nnnc3N2)cc1 (centres unmarked) | 0.219% |

| SMILES | % Inhibition @ 10 uM |
| --- | --- |
| O=C(Nc1ccc(F)c(Cl)c1)Nc1cccc2ccccc12 | -2.18% |
| c1ccc(-c2nc3c4ccccc4nc(NCc4ccco4)n3n2)cc1 | -2.42% |
| OCC1CCCN(Cc2ccccc2Br)C1 (centres unmarked) | 1.04% |
| O=C(Nc1ccc(Cl)cc1Cl)C1CCCO1 (centres unmarked) | 5.31% |
| C=CCC1(C#N)C(=S)N=C2CC(C)(C)CC(O)=C2C1c1ccccc1 (centres unmarked) | 4.04% |
| CCc1ccc(OCc2ccc(C(=O)O)o2)cc1 | 0.413% |
| COc1ccc(-c2noc(-c3nnn(-c4cccc(C(F)(F)F)c4)c3N)n2)cc1 | 5.71% |
| COc1cc(/C=N/N=C(\N)c2nonc2N)ccc1O | 1.91% |
| CS(=O)(=O)N(CC(=O)NCc1ccccc1)C1CCCCC1 | -1.89% |
| CC1(C)COC(c2coc3ccccc3c2=O)OC1 | -1.11% |
| O=C(O)c1cccc(NC(=O)c2ccc3c(c2)C(=O)N(c2cccc(C(=O)O)c2)C3=O)c1 | -1.42% |
| O=C(O)C(Cc1c[nH]cn1)Nc1c2ccccc2nc2ccccc12 (centres unmarked) | 2.05% |
| O=S(=O)(Cc1ccccc1)N1CCN(c2ccccc2)CC1 | 6.5% |
| O=C(NCc1ccco1)c1ccc(F)cc1 | -1.86% |
| Cc1nc2nc(C)c(CCC(=O)NC(C)CCc3ccccc3)c(C)n2n1 (centres unmarked) | -0.685% |
| CCOc1ccc2ccccc2c1C(=O)NCCn1c(C)cc2ccccc21 | 3.11% |
| CCOC(=O)c1sc2c(c1NC(=O)COc1ccc(Cl)cc1)CCCC2 | 5.88% |
| COc1ccccc1CNC(=O)c1ccc(CN(c2ccccc2)S(=O)(=O)c2ccccc2)cc1 | -3.74% |
| O=C(NCc1ccc2c(c1)OCO2)c1cc2c(ccc3ccccc32)oc1=O | 1.32% |
| CC(C)C[C@H](NC(=O)OCc1ccccc1)C(=O)N[C@@H](CCc1ccccc1)C(=O)c1nc2cc(Cl)ccc2o1 | -5.64% |
| Cc1nc2ccccc2n1-c1nc(-c2ccco2)cc(C(F)(F)F)n1 | -2.47% |
| COc1cccc(Nc2nc(-c3ccc(F)cc3)cs2)c1 | 0.912% |
| Cc1ccc(-c2cc(C(F)F)nc(S(C)(=O)=O)n2)cc1 | -9.05% |
| O=C(NCc1cccc2ccccc12)C(=O)c1c[nH]c2ccccc12 | 8.87% |
| COc1ccc(Br)cc1C1C(C#N)=C(N)Oc2c1c(C)nn2-c1ccccc1 (centres unmarked) | -4.4% |
| O=C(Cn1c(SCc2ccccc2F)nc2ccncc21)NCC1CCCO1 (centres unmarked) | 2.45% |

| SMILES | % Inhibition @ 10 uM |
| --- | --- |
| CC1=NN(C(=O)c2ccc(COc3ccc4c(c3)CCC4)o2)C(O)(C(F)(F)F)C1 (centres unmarked) | 0.389% |
| CN1CCC(O)(c2ccc(Cl)cc2)C(C(=O)c2ccc(Cl)cc2)C1 (centres unmarked) | 5.15% |
| CCOC(=O)C1=C(Cn2ccc(C(F)(F)F)n2)NC(=O)NC1c1ccc2c(c1)OCO2 (centres unmarked) | -0.403% |
| CC1CCC(N2CCN(c3cccc(Cl)c3)CC2)CC1 (centres unmarked) | -0.0953% |
| O=C1CCCc2sc([N+](=O)[O-])cc2N1 | 3.9% |
| O=C1NC2(Nc3ccccc31)C(=O)N(Cc1ccccc1F)c1ccccc12 (centres unmarked) | 4.28% |
| O=C(NCc1cccnc1)c1ccc2c(c1)C1C3CCC(C3)C1C(c1ccccc1)N2 (centres unmarked) | -8.95% |
| Cc1ccc(NC(=O)c2ccc(Br)o2)c(C)c1 | -3.09% |
| CC1CN=C(Nc2ccccc2)S1 (centres unmarked) | -5.16% |
| O=C1/C(=N\c2ccccc2)c2ccccc2N1CN1CCc2ccccc2C1 | 0.673% |
| Cc1ccc(-c2csc3ncnc(NCCC(=O)O)c23)cc1 | 1.52% |
| O=C(NC1CCCCC1NC(=O)c1cccs1)c1cccs1 (centres unmarked) | 2.95% |
| Cc1cc2nsnc2c2nsnc12 | 1.72% |
| CC1CCC2(CC1)C(C#N)C(=O)NC(=O)C2C#N (centres unmarked) | -4.31% |
| COC(=O)c1cc2ccsc2n1Cc1nc(-c2ccc(OC)c(OC)c2)oc1C | -8.2% |
| CC[C@H](NC(=O)[C@H](CCC1CCCCC1)CC(=O)N1CCOCC1)C(=O)c1nnc(-c2ccccc2)o1 | -6.98% |
| C=CCSc1nc(N)c2c3c(sc2n1)CCCC3 | 16.3% |
| Clc1cccc(N2CCN(Cc3ccc4ccccc4c3)CC2)c1 | -0.127% |
| CN(C)C(=O)C(NC(=O)c1ccccc1)=C1CCCCC1 | 3.76% |
| CCCn1c(C)cc(C)c(C#N)c1=O | 2.56% |
| CCOc1nc(-c2ccccc2)cc(-c2ccc(C)cc2)n1 | 0.827% |
| CCC(NC(=O)Nc1cccnc1)(C(F)(F)F)C(F)(F)F | 0.986% |
| COc1cccc2c1NC1CC(C)CCC1C2(C)C (centres unmarked) | -2.51% |
